{"source": "PubChem BioAssay AID588855", "about": "(National Center for Advancing Translational Sciences (NCATS), 2011)", "note": "Out of some 410,000 compounds screened, about 5,000 (1.2%) were called active. This list was built around the results that the source calls inconclusive (neither active nor inactive); the mix of calls is not that of the screen. Calls follow the shape of the dose curve; as a rule, active = well fitted inhibition curve with a large enough effect; inconclusive = small, poorly fitted or top-dose-only effect; inactive = no such curve, though single readings can be large or run the other way. Where the call is inconclusive, the potency comes from a doubtful curve fit. Potency is read from the fitted curve at half-maximal effect; tags tell the direction and shape of the fitted curve.", "data": [{"test": "qHTS for Inhibitors of TGF-b; also: nearly all actives have a fitted effect of over 65% in size", "conditions": "HepG2 CAGA-GFP TGF-b/SMAD3 reporter, GFP fluorescence, 18 h, TGF-beta stimulated, 500 pg/mL final; series mostly up to 46.1 µM", "outline": "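Cell-based qHTS in HEPG2 carrying a CAGA-GFP Smad reporter; compounds added before 500 pg/mL final TGF-beta, 18 h incubation at 37 degrees C, GFP fluorescence quantified per cell by imaging cytometry.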", "values": [{"smiles": "O=C1/C(=C/c2ccccn2)SC(=S)N1c1ccc(O)cc1", "Potency": "inconclusive: 35.5 µM [inhibitor, single point]"}, {"smiles": "CN(CC1COc2ccccc2O1)C(=S)NC1CCCCC1", "note": "(centres undefined)", "Potency": "inconclusive: 20 µM [inhibitor, single point]"}, {"smiles": "COc1ccc(C(CC(=O)Nc2nccs2)C(C)C)cc1", "note": "(centres undefined)", "Potency": "inconclusive: 3.55 µM [inhibitor, single point]"}, {"smiles": "O=C1C2CCCN2C(=S)N1c1ccc(Cl)cc1", "note": "(centres undefined)", "Potency": "inconclusive: 12.6 µM [inhibitor, partial curve, poor fit]"}, {"smiles": "CCc1ccc(NC(=O)Cn2c(=O)n(CCCC(=O)NCc3ccccc3OC)c(=O)c3ccccc32)cc1", "Potency": "inconclusive: 35.5 µM [inhibitor, single point]"}, {"smiles": "N#Cc1c(NCCN)nc(-c2ccco2)c2c1CCCC2", "Potency": "inconclusive: 35.5 µM [inhibitor, single point]"}, {"smiles": "COc1cc(-c2nc(Cn3nnc(C(=O)Nc4ccccc4C)c3C)c(C)o2)cc(OC)c1OC", "Potency": "inconclusive: 2.82 µM [inhibitor, partial curve, poor fit]"}, {"smiles": "OCCNC(=S)NC1CCCCC1", "Potency": "inactive"}, {"smiles": "CCOC(=O)c1cc(-c2ccccc2)n(CCC(=O)Nc2ccc(OC)c(Cl)c2)c1C", "Potency": "inconclusive: 0.794 µM [inhibitor, full curve, poor fit]"}, {"smiles": "Cc1nn(Cc2ccc(C(=O)Nc3ccc(C(=O)OC(C)C)cc3)o2)c(C)c1Cl", "Potency": "inconclusive: 22.4 µM [inhibitor, single point]"}, {"smiles": "O=C1OCC2=C1C(c1ccc(F)cc1)c1cc3c(cc1N2)OCO3", "note": "(centres undefined)", "Potency": "inconclusive: 0.447 µM [inhibitor, full curve, poor fit]"}, {"smiles": "Cc1cccc(C)c1N=Nc1c(C)cc(O)cc1C", "Potency": "inconclusive: 22.4 µM [inhibitor, single point]"}, {"smiles": "Cc1nc(Nc2cccc(Cl)c2)c2oc3ccccc3c2n1", "Potency": "inconclusive: 35.5 µM [inhibitor, single point]"}, {"smiles": "COc1ccc(-n2cc(-c3ccc(Br)cc3)[nH]c2=S)cc1", "Potency": "inactive"}, {"smiles": "CC(C)CN1CCC(=O)N([C@H](COc2ccccc2)Cc2ccccc2)CC1", "Potency": "inconclusive: 12.6 µM [inhibitor, single point]"}, {"smiles": "CC1(C(=O)Nc2cccc(OC(F)(F)F)c2)Cc2c(-c3cccc(C(N)=O)c3)ccnc2O1", "note": "(centres undefined)", "Potency": "inactive"}, {"smiles": "Cc1ccc(NC(=O)CSc2ncccc2C(=O)Oc2ccccc2Cl)cc1Cl", "Potency": "inconclusive: 5.62 µM [inhibitor, full curve, poor fit]"}, {"smiles": "O=C(N/N=C/c1cn(CCOc2ccccc2)c2ccccc12)c1ccncc1", "Potency": "inconclusive: 3.55 µM [inhibitor, full curve]"}, {"smiles": "O=C(O)c1cccc2c1C(=O)c1ccc(-c3ccc(F)cc3F)cc1S2(=O)=O", "Potency": "inactive"}, {"smiles": "O=c1c2sc3ccccc3c2n(Cc2ccc(F)cc2)c(=O)n1Cc1ccccc1", "Potency": "inactive"}, {"smiles": "Cc1ccccc1C(=O)N1CCN(CCNC(=O)C(=O)Nc2ccc(Br)cc2)CC1", "Potency": "inactive"}, {"smiles": "CC(C)c1ccc(C(=O)N2CCCCC2c2cc(C(=O)Nc3ccncc3)no2)cc1", "note": "(centres undefined)", "Potency": "inactive"}, {"smiles": "COc1ccc([C@H]2C[C@H](O)[C@@H](n3cc(COC(=O)c4ccccc4)nn3)CN2CC2CCCCC2)cc1", "Potency": "inconclusive: 35.5 µM [inhibitor, single point]"}, {"smiles": "Cc1cc(C)n(CCc2nc(-c3ccc(C(C)(C)C)cc3)cs2)n1", "Potency": "inconclusive: 5.62 µM [inhibitor, full curve, poor fit]"}, {"smiles": "Cc1ccc(C(C)C)c(OCCNC(=S)Nc2cccc3ccccc23)c1", "Potency": "inconclusive: 35.5 µM [inhibitor, single point]"}, {"smiles": "CN(C)/C=C/C(=O)c1ccc2noc(-c3ccc(F)cc3)c2c1", "Potency": "inconclusive: 35.5 µM [inhibitor, single point]"}, {"smiles": "Cc1nc(SCc2nc3c(C)cccc3[nH]2)c2oc3ccccc3c2n1", "Potency": "inconclusive: 35.5 µM [inhibitor, single point]"}, {"smiles": "Cc1ccc(S(=O)(=O)N2CCCC2CNC(=O)c2ccc3c(c2)OCO3)cc1", "note": "(centres undefined)", "Potency": "inconclusive: 3.16 µM [inhibitor, partial curve, poor fit]"}, {"smiles": "COc1ccc(Br)c(Cn2c(C)c(C(=O)NCCC#N)sc2=O)c1", "Potency": "inactive"}, {"smiles": "COc1cc(CNC2CCCC2)cc(Cl)c1OCc1ccc(F)cc1", "Potency": "inactive"}, {"smiles": "CCn1c(/C=C/c2ccc([N+](=O)[O-])o2)nc2ccccc2c1=O", "Potency": "inconclusive: 2.82 µM [inhibitor, full curve, poor fit]"}, {"smiles": "Nc1c(Cl)c(Cl)nc(C(=O)OCC(=O)N2CCCC2=O)c1Cl", "Potency": "inconclusive: 12.6 µM [inhibitor, single point]"}, {"smiles": "O=C(NCCc1nc2ccccc2n1CCCOc1ccccc1)C1CCCCC1", "Potency": "inconclusive: 14.1 µM [inhibitor, partial curve, poor fit]"}, {"smiles": "CC(C)NC(=S)N/N=C/C1=CCC2CC1C2(C)C", "note": "(centres undefined)", "Potency": "inconclusive: 6.31 µM [inhibitor, single point]"}, {"smiles": "CCn1c(C)nnc1SCC(=O)Nc1ccc(Cl)cc1", "Potency": "inactive"}, {"smiles": "COc1ccc(C(=O)N(CCc2ccccc2)Cc2ccccc2)c(OC)n1", "Potency": "inconclusive: 35.5 µM [inhibitor, single point]"}, {"smiles": "O=C(N/N=C/c1cn(Cc2ccccc2)c2ccccc12)c1ccncc1", "Potency": "inconclusive: 2.51 µM [inhibitor, full curve]"}, {"smiles": "CC(=O)Nc1sc(N/N=C/c2ccccc2F)nc1-c1ccc(C)cc1", "Potency": "inactive"}, {"smiles": "CC1CCCN(C(=S)Nc2ccc(Nc3ccccc3)cc2)C1", "note": "(centres undefined)", "Potency": "inconclusive: 35.5 µM [inhibitor, single point]"}, {"smiles": "Cc1ccc(F)cc1NC(=O)CCc1c(C)nn(-c2ccc(N3CCCCC3)nn2)c1C", "Potency": "inactive"}, {"smiles": "O=C(C[n+]1ccccc1Cl)c1ccc2ccccc2c1", "Potency": "inactive"}, {"smiles": "O=C(/C=C/Nc1ccc(F)cc1F)c1ccc(Br)cc1", "Potency": "inconclusive: 6.31 µM [inhibitor, single point]"}, {"smiles": "CN(C)CCCN(C(=O)c1ccc(Cl)s1)c1nc2cc3c(cc2s1)OCO3", "Potency": "inconclusive: 20 µM [inhibitor, single point]"}, {"smiles": "C#CCN(C[C@@H]1[C@@H](OC(=O)NCc2ccco2)[C@@H](OC(=O)NCc2ccco2)Cn2c(=O)ccc(=O)n21)S(=O)(=O)c1ccc(C)cc1", "Potency": "inconclusive: 17.8 µM [inhibitor, single point]"}]}]}
